This is one part of the list.
Tests used:
Experiment in all cases: glycan array binding signal (z-score within array); higher = stronger binding
Conditions in all cases: glycan notation: IUPAC condensed, linker removed
Fuc(a1-2)Gal = target: Fuc(a1-2)Gal
How it was run: (§1)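 The binding signal is a Z-score computed within each array and averaged over linkers. Arrays of the same protein sequence at different concentrations or buffers were also averaged together. Data originate from 3228 arrays in the Consortium for Functional Glycomics database, kept only where the protein sequence was available.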

Fuc(a1-2)Gal(b1-3)GalNAc = target: Fuc(a1-2)Gal(b1-3)GalNAc
How it was run: as §1

[1] = target: Fuc(a1-2)Gal(b1-3)GalNAc(a1-3)[Fuc(a1-2)]Gal(b1-4)Glc
How it was run: as §1

[2] = target: Fuc(a1-2)Gal(b1-3)GalNAc(a1-3)[Fuc(a1-2)]Gal(b1-4)GlcNAc
How it was run: as §1

[3] = target: Fuc(a1-2)Gal(b1-3)GalNAc(b1-3)Gal
How it was run: as §1

[4] = target: Fuc(a1-2)Gal(b1-3)GalNAc(b1-3)Gal(a1-4)Gal(b1-4)Glc
How it was run: as §1

[5] = target: Fuc(a1-2)Gal(b1-3)GalNAc(b1-4)[Neu5Ac(a2-3)]Gal(b1-4)Glc
How it was run: as §1

Fuc(a1-2)Gal(b1-3)GlcNAc = target: Fuc(a1-2)Gal(b1-3)GlcNAc
How it was run: as §1

[6] = target: Fuc(a1-2)Gal(b1-3)GlcNAc(b1-2)Man(a1-3)[Fuc(a1-2)Gal(b1-3)GlcNAc(b1-2)Man(a1-6)]Man(b1-4)GlcNAc(b1-4)GlcNAc
How it was run: as §1

[7] = target: Fuc(a1-2)Gal(b1-3)GlcNAc(b1-2)Man(a1-3)[Fuc(a1-2)Gal(b1-3)GlcNAc(b1-2)Man(a1-6)]Man(b1-4)GlcNAc(b1-4)[Fuc(a1-6)]GlcNAc
How it was run: as §1

[8] = target: Fuc(a1-2)Gal(b1-3)GlcNAc(b1-3)Gal(b1-4)Glc
How it was run: as §1

[9] = target: Fuc(a1-2)Gal(b1-3)GlcNAc(b1-3)GalNAc
How it was run: as §1

[10] = target: Fuc(a1-2)Gal(b1-3)GlcNAc(b1-3)[Fuc(a1-2)Gal(b1-3)GlcNAc(b1-6)]GalNAc
How it was run: as §1

[11] = target: Fuc(a1-2)Gal(b1-3)GlcNAc(b1-3)[Gal(b1-4)GlcNAc(b1-6)]Gal(b1-4)Glc
How it was run: as §1

[12] = target: Fuc(a1-2)Gal(b1-3)GlcNAc(b1-3)[Neu5Ac(a2-6)Gal(b1-4)GlcNAc(b1-6)]Gal(b1-4)Glc
How it was run: as §1

[13] = target: Fuc(a1-2)Gal(b1-3)GlcNAc6S
How it was run: as §1

[14] = target: Fuc(a1-2)Gal(b1-3)[Fuc(a1-4)]GlcNAc
How it was run: as §1

[15] = target: Fuc(a1-2)Gal(b1-3)[Fuc(a1-4)]GlcNAc(b1-2)Man(a1-3)[Fuc(a1-2)Gal(b1-3)[Fuc(a1-4)]GlcNAc(b1-2)Man(a1-3)]Man(b1-4)GlcNAc(b1-4)GlcNAc
How it was run: as §1

[16] = target: Fuc(a1-2)Gal(b1-3)[Fuc(a1-4)]GlcNAc(b1-2)Man(a1-3)[Fuc(a1-2)Gal(b1-3)[Fuc(a1-4)]GlcNAc(b1-2)Man(a1-6)]Man(b1-4)GlcNAc(b1-4)[Fuc(a1-6)]GlcNAc(b1-4)[Fuc(a1-6)]GlcNAc
How it was run: as §1

[17] = target: Fuc(a1-2)Gal(b1-3)[Fuc(a1-4)]GlcNAc(b1-3)[Fuc(a1-3)[Gal(b1-4)]GlcNAc(b1-6)]Gal(b1-4)Glc
How it was run: as §1

[18] = target: Fuc(a1-2)Gal(b1-3)[Fuc(a1-4)]GlcNAc(b1-3)[Gal(b1-4)GlcNAc(b1-6)]Gal(b1-4)Glc
How it was run: as §1

[19] = target: Fuc(a1-2)Gal(b1-4)Fuc(a1-3)]GlcNAc(b1-2)Man(a1-3)[Fuc(a1-2)Gal(b1-4)[Fuc(a1-3)]GlcNAc(b1-2)Man(a1-6)]Man(b1-4)GlcNAc(b1-4)GlcNAc
How it was run: as §1

Fuc(a1-2)Gal(b1-4)Glc = target: Fuc(a1-2)Gal(b1-4)Glc
How it was run: as §1

Fuc(a1-2)Gal(b1-4)Glc6S = target: Fuc(a1-2)Gal(b1-4)Glc6S
How it was run: as §1

Fuc(a1-2)Gal(b1-4)GlcNAc = target: Fuc(a1-2)Gal(b1-4)GlcNAc
How it was run: as §1

[20] = target: Fuc(a1-2)Gal(b1-4)GlcNAc(b1-2)Man
How it was run: as §1

[21] = target: Fuc(a1-2)Gal(b1-4)GlcNAc(b1-2)Man(a1-3)[Fuc(a1-2)Gal(b1-4)GlcNAc(b1-2)Man(a1-6)]Man(b1-4)GlcNAc(b1-4)GlcNAc
How it was run: as §1

[22] = target: Fuc(a1-2)Gal(b1-4)GlcNAc(b1-2)Man(a1-3)[Fuc(a1-2)Gal(b1-4)GlcNAc(b1-2)Man(a1-6)]Man(b1-4)GlcNAc(b1-4)[Fuc(a1-6)]GlcNAc
How it was run: as §1

[23] = target: Fuc(a1-2)Gal(b1-4)GlcNAc(b1-2)[Fuc(a1-2)Gal(b1-4)GlcNAc(b1-4)]Man(a1-3)[Fuc(a1-2)Gal(b1-4)GlcNAc(b1-2)Man(a1-6)]Man(b1-4)GlcNAc(b1-4)GlcNAc
How it was run: as §1

[24] = target: Fuc(a1-2)Gal(b1-4)GlcNAc(b1-3)Gal(b1-4)GlcNAc
How it was run: as §1

B1: Epa23 (Candida glabrata) (protein)
chain: MGSSHHHHHHSSGLVPRGSHMIPNPFEGTINNFPSGCSPNHGLYNRGLTMELYNYSYIHPQSIQSYFNTSTLKKMEKGQCWDPSYLDVNYPRTGYKTHNRFAKVNGIDGILDFEFNPTRSCVPSKGQLPQNYNYPLQFTLSNFTMLLYGYFKPKVTAKHTFTIFADDLLFLNFGAGNAFDCCQQQDTIDDFGNYQAYALWGSDTQQNTLTVNLDANIYYPIRMFYNNRDFKGALNMYFTTDESNTKINDFSGYLFNIPDSSEGCPAHISYETECGNVSG
glycan array binding signal (z-score) (Fuc(a1-2)Gal): -0.243
glycan array binding signal (z-score) (Fuc(a1-2)Gal(b1-3)GalNAc): -0.187
glycan array binding signal (z-score) [1]: -0.202
glycan array binding signal (z-score) [2]: -0.246
glycan array binding signal (z-score) [3]: -0.17
glycan array binding signal (z-score) [4]: -0.194
glycan array binding signal (z-score) [5]: -0.222
glycan array binding signal (z-score) (Fuc(a1-2)Gal(b1-3)GlcNAc): -0.257
glycan array binding signal (z-score) [6]: -0.224
glycan array binding signal (z-score) [7]: -0.222
glycan array binding signal (z-score) [8]: -0.232
glycan array binding signal (z-score) [9]: -0.236
glycan array binding signal (z-score) [10]: -0.245
glycan array binding signal (z-score) [11]: -0.156
glycan array binding signal (z-score) [12]: -0.286
glycan array binding signal (z-score) [13]: -0.221
glycan array binding signal (z-score) [14]: -0.18
glycan array binding signal (z-score) [15]: -0.226
glycan array binding signal (z-score) [16]: -0.257
glycan array binding signal (z-score) [17]: -1.05
glycan array binding signal (z-score) [18]: -0.129
glycan array binding signal (z-score) [19]: -0.116
glycan array binding signal (z-score) (Fuc(a1-2)Gal(b1-4)Glc): -0.201
glycan array binding signal (z-score) (Fuc(a1-2)Gal(b1-4)Glc6S): -0.197
glycan array binding signal (z-score) (Fuc(a1-2)Gal(b1-4)GlcNAc): -0.214
glycan array binding signal (z-score) [20]: -0.282
glycan array binding signal (z-score) [21]: -0.246
glycan array binding signal (z-score) [22]: -0.157
glycan array binding signal (z-score) [23]: -0.287
glycan array binding signal (z-score) [24]: -0.239

From the supplement of paper PMC8728848
